This test deals with OT-I TCR (mouse). The experiment in a line: cell-based or functional assay. The note with it: scale: orders of magnitude higher potency than T5-IL2M6.

B1: T4-IL2M6 (Fc fusion)
chain: SIINFEKLGCGGSGGGGSGGGGSIQKTPQIQVYSRHPPENGKPNILNCYVTQFHPPHIEIQMLKNGKKIPKVEMSDMSFSKDWSFYILAHTEFTPTETDTYACRVKHASMAEPKTVYWDRDMGGGGSGGGGSGGGGSGGGGSGPHSLRYFVTAVSRPGLGEPRYMEVGYVDDTEFVRFDSDAENPRYEPRARWMEQEGPEYWERETQKAKGNEQSFRVDLRTLLGCYNQSKGGSHTIQVISGCEVGSDGRLLRGYQQYAYDGCDYIALNEDLKTWTAADMAALITKHKWEQAGEAERLRAYLEGTCVEWLRRYLKNGNATLLRTDSPKAHVTHHSRPEDKVTLRCWALGFYPADITLTWQLNGEELIQDMELVETRPAGDGTFQKWASVVVPLGKEQYYTCHVYHQGLPEPLTLRWEPPPSTVSNMAGGGGSGGGGSGGGGSGGGGSESKYGPPCPPCPAPPVAGPSVFLFPPKPKDTLMISRTPEVTCVVVDVSQEDPEVQFNWYVDGVEVHNAKTKPREEQFNSTYRVVSVLTVLHQDWLNGKEYKCKVSNKGLPSSIEKTISKAKGQPREPQVYTLPPSQEEMTKNQVSLTCLVKGFYPSDIAVEWESNGQPENNYKTTPPVLDSDGSFFLYSRLTVDKSRWQEGNVFSCSVMHEALHNHYTQKSLSLSLGKGGGGSGGGGSGGGGS[sequence of about 150 residues omitted]
On to B1, for which the potency in inducing STAT5 phosphorylation in gated CD8+ T cells of OT-I splenocytes, against T5-IL2M6 stood at 2.

Source of the values: US20230053563A1.
